# Laboratory results reported in the supplement of paper PMC8728848.
# The list shows a part of the results.
# B1: CLEC-6 (Homo sapiens), Q8WXI8 (protein)
# chain: MGLEKPQSKLEGGMHPQLIPSVIAVVFILLLSVCFIASCLVTHHNFSRCKRGTGVHKLEHHAKLKCIKEKSELKSAEGSTWNCCPIDWRAFQSNCYFPLTDNKTWAESERNCSGMGAHLMTISTEAEQNFIIQFLDRRLSYFLGLRDENAKGQWRWVDQTPFNPRRVFWHKNEPDNSQGENCVVLVYNQDKWAWNDVPCNFEASRICKIPGTTLN
# Columns and labels:
# Assay in all cases: glycan array binding signal (z-score within array); higher = stronger binding
# Settings in all cases: glycan notation: IUPAC condensed, linker removed
# [1] = molecular target: Neu5Ac(a2-3)Gal(b1-4)GlcNAc(b1-3)Gal(b1-4)GlcNAc
# Summary of the method: (§1)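 From the Consortium for Functional Glycomics database, 3228 arrays were curated, keeping only those whose protein sequence was available. Binding is given as a within-array Z-score averaged across arrays sharing a protein sequence and across linkers. Negative Z-scores can be read as non-binding.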
# [2] = molecular target: Neu5Ac(a2-3)Gal(b1-4)GlcNAc(b1-3)Gal(b1-4)GlcNAc(b1-3)Gal(b1-4)GlcNAc
# Summary of the method: as §1
# [3] = molecular target: Neu5Ac(a2-3)Gal(b1-4)GlcNAc(b1-3)Gal(b1-4)[Fuc(a1-3)]GlcNAc
# Summary of the method: as §1
# [4] = molecular target: Neu5Ac(a2-3)Gal(b1-4)GlcNAc6S
# Summary of the method: as §1
# [5] = molecular target: Neu5Ac(a2-3)Gal(b1-4)[Fuc(a1-3)]GlcNAc
# Summary of the method: as §1
# [6] = molecular target: Neu5Ac(a2-3)Gal(b1-4)[Fuc(a1-3)]GlcNAc(b1-3)Gal
# Summary of the method: as §1
# [7] = molecular target: Neu5Ac(a2-3)Gal(b1-4)[Fuc(a1-3)]GlcNAc(b1-3)Gal(b1-4)GlcNAc
# Summary of the method: as §1
# [8] = molecular target: Neu5Ac(a2-3)Gal(b1-4)[Fuc(a1-3)]GlcNAc(b1-3)Gal(b1-4)[Fuc(a1-3)]GlcNAc(b1-3)Gal(b1-4)[Fuc(a1-3)]GlcNAc
# Summary of the method: as §1
# [9] = molecular target: Neu5Ac(a2-3)Gal(b1-4)[Fuc(a1-3)]GlcNAc6S
# Summary of the method: as §1
# [10] = molecular target: Neu5Ac(a2-3)Gal6S(b1-4)GlcNAc
# Summary of the method: as §1
# [11] = molecular target: Neu5Ac(a2-3)Gal6S(b1-4)[Fuc(a1-3)]GlcNAc
# Summary of the method: as §1
# Neu5Ac(a2-3)GalNAc = molecular target: Neu5Ac(a2-3)GalNAc
# Summary of the method: as §1
# [12] = molecular target: Neu5Ac(a2-3)GalNAc(b1-4)GlcNAc
# Summary of the method: as §1
# [13] = molecular target: Neu5Ac(a2-3)[GalNAc(b1-4)]Gal(b1-4)Glc
# Summary of the method: as §1
# [14] = molecular target: Neu5Ac(a2-3)[GalNAc(b1-4)]Gal(b1-4)GlcNAc
# Summary of the method: as §1
# [15] = molecular target: Neu5Ac(a2-3)[Neu5Ac(a2-6)]GalNAc
# Summary of the method: as §1
# Neu5Ac(a2-6)Gal = molecular target: Neu5Ac(a2-6)Gal
# Summary of the method: as §1
# Neu5Ac(a2-6)Gal(b1-4)Glc = molecular target: Neu5Ac(a2-6)Gal(b1-4)Glc
# Summary of the method: as §1
# [16] = molecular target: Neu5Ac(a2-6)Gal(b1-4)GlcNAc
# Summary of the method: as §1
# [17] = molecular target: Neu5Ac(a2-6)Gal(b1-4)GlcNAc(b1-2)Man(a1-3)[Neu5Ac(a2-6)Gal(b1-4)GlcNAc(b1-2)Man(a1-6)]Man(b1-4)GlcNAc(b1-4)GlcNAc
# Summary of the method: as §1
# [18] = molecular target: Neu5Ac(a2-6)Gal(b1-4)GlcNAc(b1-3)Gal(b1-4)GlcNAc
# Summary of the method: as §1
# [19] = molecular target: Neu5Ac(a2-6)Gal(b1-4)GlcNAc(b1-3)Gal(b1-4)[Fuc(a1-3)]GlcNAc(b1-3)Gal(b1-4)[Fuc(a1-3)]GlcNAc
# Summary of the method: as §1
# [20] = molecular target: Neu5Ac(a2-6)Gal(b1-4)GlcNAc6S
# Summary of the method: as §1
# Neu5Ac(a2-6)GalNAc = molecular target: Neu5Ac(a2-6)GalNAc
# Summary of the method: as §1
# [21] = molecular target: Neu5Ac(a2-6)GalNAc(b1-4)GlcNAc
# Summary of the method: as §1
# Neu5Ac(a2-8)Neu5Ac = molecular target: Neu5Ac(a2-8)Neu5Ac
# Summary of the method: as §1
# [22] = molecular target: Neu5Ac(a2-8)Neu5Ac(a2-3)Gal(b1-4)Glc
# Summary of the method: as §1
# [23] = molecular target: Neu5Ac(a2-8)Neu5Ac(a2-3)[GalNAc(b1-4)]Gal(b1-4)Glc
# Summary of the method: as §1
# [24] = molecular target: Neu5Ac(a2-8)Neu5Ac(a2-8)Neu5Ac
# Summary of the method: as §1
# [25] = molecular target: Neu5Ac(a2-8)Neu5Ac(a2-8)Neu5Ac(a2-3)Gal(b1-4)Glc
# Summary of the method: as §1
# [26] = molecular target: Neu5Ac(a2-8)Neu5Ac(a2-8)Neu5Ac(a2-3)[GalNAc(b1-4)]Gal(b1-4)Glc
# Summary of the method: as §1
# [27] = molecular target: Neu5Ac(a2-8)Neu5Ac(a2-8)Neu5Ac(a2-8)Neu5Ac(a2-3)[GalNAc(b1-4)]Gal(b1-4)Glc
# Summary of the method: as §1
# Neu5Ac(b1-6)GalNAc = molecular target: Neu5Ac(b1-6)GalNAc
# Summary of the method: as §1
# [28] = molecular target: Neu5Ac(b2-6)Gal(b1-4)GlcNAc
# Summary of the method: as §1
# [29] = molecular target: Neu5Ac9Ac(a2-6)Gal(b1-4)GlcNAc
# Summary of the method: as §1
# [30] = molecular target: Neu5Gc(a2-3)Gal(b1-3)GlcNAc
# Summary of the method: as §1
# [31] = molecular target: Neu5Gc(a2-3)Gal(b1-3)[Fuc(a1-4)]GlcNAc
# Summary of the method: as §1
# Neu5Gc(a2-3)Gal(b1-4)Glc = molecular target: Neu5Gc(a2-3)Gal(b1-4)Glc
# Summary of the method: as §1
# [32] = molecular target: Neu5Gc(a2-3)Gal(b1-4)GlcNAc
# Summary of the method: as §1
# [33] = molecular target: Neu5Gc(a2-3)Gal(b1-4)[Fuc(a1-3)]GlcNAc
# Summary of the method: as §1
# [34] = molecular target: Neu5Gc(a2-6)Gal(b1-4)GlcNAc
# Summary of the method: as §1
# Neu5Gc(a2-6)GalNAc = molecular target: Neu5Gc(a2-6)GalNAc
# Summary of the method: as §1
binder,measurement,setting,value
B1,glycan array binding signal (z-score),[1],-0.185
same,glycan array binding signal (z-score),[2],-0.122
same,glycan array binding signal (z-score),[3],-0.35
same,glycan array binding signal (z-score),[4],-0.144
same,glycan array binding signal (z-score),[5],-0.341
same,glycan array binding signal (z-score),[6],-0.265
same,glycan array binding signal (z-score),[7],-0.109
same,glycan array binding signal (z-score),[8],-0.153
same,glycan array binding signal (z-score),[9],-0.308
same,glycan array binding signal (z-score),[10],-0.142
same,glycan array binding signal (z-score),[11],-0.143
same,glycan array binding signal (z-score),Neu5Ac(a2-3)GalNAc,-0.207
same,glycan array binding signal (z-score),[12],-0.104
same,glycan array binding signal (z-score),[13],-0.359
same,glycan array binding signal (z-score),[14],-0.199
same,glycan array binding signal (z-score),[15],-0.182
same,glycan array binding signal (z-score),Neu5Ac(a2-6)Gal,0.085
same,glycan array binding signal (z-score),Neu5Ac(a2-6)Gal(b1-4)Glc,-0.183
same,glycan array binding signal (z-score),[16],-0.221
same,glycan array binding signal (z-score),[17],0.066
same,glycan array binding signal (z-score),[18],-0.227
same,glycan array binding signal (z-score),[19],1.59
same,glycan array binding signal (z-score),[20],0.02
same,glycan array binding signal (z-score),Neu5Ac(a2-6)GalNAc,-0.305
same,glycan array binding signal (z-score),[21],-0.108
same,glycan array binding signal (z-score),Neu5Ac(a2-8)Neu5Ac,-0.157
same,glycan array binding signal (z-score),[22],0.063
same,glycan array binding signal (z-score),[23],-0.295
same,glycan array binding signal (z-score),[24],-0.085
same,glycan array binding signal (z-score),[25],-0.163
same,glycan array binding signal (z-score),[26],-0.333
same,glycan array binding signal (z-score),[27],-0.363
same,glycan array binding signal (z-score),Neu5Ac(b1-6)GalNAc,-0.401
same,glycan array binding signal (z-score),[28],-0.352
same,glycan array binding signal (z-score),[29],-0.166
same,glycan array binding signal (z-score),[30],-0.288
same,glycan array binding signal (z-score),[31],-0.261
same,glycan array binding signal (z-score),Neu5Gc(a2-3)Gal(b1-4)Glc,-0.164
same,glycan array binding signal (z-score),[32],-0.141
same,glycan array binding signal (z-score),[33],-0.188
same,glycan array binding signal (z-score),[34],-0.19
same,glycan array binding signal (z-score),Neu5Gc(a2-6)GalNAc,0.134
